Assay results as given in patent publication CN111423515A (BETA PHARMA INC, dated 2020).

Experiments:
hCD47-his = molecular target: T1, hCD47-his (human, UniProt Q08722 in part); experiment: ELISA, hCD47-his coated
T1 construct: Bought protein coated on the ELISA plate; also called Cat#CD7-H5227; not shown: his tag

[1] = molecular target: T2, human CD47 on cells (CHO-K1/hCD47; human red blood cells RBC) (human, UniProt Q08722); experiment: flow cytometry, CHO-K1/hCD47 mixed 1:1 with CHO-K1/hCD20-CD47, 10 μg/mL
T2 construct: whole, on cells; also called CHO-K1/human CD47; 红细胞

Chain of hCD47-his (Q08722 19-139 limits assumed): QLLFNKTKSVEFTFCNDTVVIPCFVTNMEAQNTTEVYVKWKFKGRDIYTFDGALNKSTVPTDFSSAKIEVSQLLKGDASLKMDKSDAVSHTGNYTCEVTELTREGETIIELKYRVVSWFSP

- binding result (hCD47-his): binds
- binding result [1]: binds
B1: 重组蛋白SIRPaD1 (Fc fusion)
chain: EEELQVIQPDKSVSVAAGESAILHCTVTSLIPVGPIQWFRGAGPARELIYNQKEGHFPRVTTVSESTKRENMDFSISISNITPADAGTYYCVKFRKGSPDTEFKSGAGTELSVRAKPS
notes: Control recombinant protein; detected with anti-human IgG second antibodies; the abstract calls it SIRPaD1-Fc; also called SIRPaD1-Fc; not shown: Fc part of the recombinant protein (abstract: SIRPaD1-Fc); construct and its limits not described
